Experimental data reported in PubChem BioAssay AID2202238 (Ras Initiative Chemistry Research Team, Frederick National …, 2025).
This is one part of the list. These are further read-outs of the screen, such as a control signal, another cell line or another target. No call is given for them.

Target: GTPase KRas (Homo sapiens) (UniProt P01116)
Assay: Fragment capture on engineered cysteines, share of protein labelled (AID 2202238)
Set-up: protein at 5 µM with 500 µM competing thiol for 1.5 h
Conditions: KRAS G12D cysteine mutants, disulfide tethering, MALDI-TOF labeling, stronger effect = higher value, fragment at 500 µM
[1] = measured here: G60C mutant labeling
[2] = measured here: G75C mutant labeling
[3] = measured here: H94C mutant labeling
[4] = measured here: I36C mutant labeling
[5] = measured here: L120C mutant labeling
[6] = measured here: M67C mutant labeling
[7] = measured here: M72C mutant labeling
[8] = measured here: N26C mutant labeling
[9] = measured here: N86C mutant labeling
[10] = measured here: P121C mutant labeling
[11] = measured here: S122C mutant labeling
[12] = measured here: S136C mutant labeling

Sequence of UniProt P01116 (P01116 whole entry, looked up, the tested form may be a part): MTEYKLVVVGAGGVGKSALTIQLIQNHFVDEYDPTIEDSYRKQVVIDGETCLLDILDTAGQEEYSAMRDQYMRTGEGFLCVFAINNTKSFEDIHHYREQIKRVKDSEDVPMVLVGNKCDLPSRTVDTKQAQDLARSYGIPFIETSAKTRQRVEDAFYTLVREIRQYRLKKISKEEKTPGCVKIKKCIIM

SMILES	percent labeling [1]	percent labeling [2]	percent labeling [3]	percent labeling [4]	percent labeling [5]	percent labeling [6]	percent labeling [7]	percent labeling [8]	percent labeling [9]	percent labeling [10]	percent labeling [11]	percent labeling [12]
O=C(NCCS)c1c[nH]c2ncc(Br)cc12	35.1%	29.5%	27.1%	21.9%	26.6%	23.2%	49%	43.8%	17.1%	19.4%	15.3%	38.4%
O=C(CCc1ncc(-c2ccc(F)cc2)o1)NCCS	31.4%	10.3%	38.8%	15.4%	20.8%	26.3%	24.7%	29.8%	15.5%	18.7%	13.7%	28%
COc1cc(CN(C(=O)CCS)C2CC2)ccc1O	–	14.4%	43.7%	39.9%	38.8%	51.1%	43.1%	–	23.1%	35.2%	39.9%	67.4%
CC1(N2CCCC2)CCC(NC(=O)CCS)CC1 (configuration not stated)	–	15.8%	40.4%	55.6%	30.9%	48.5%	21.5%	–	24.1%	37.4%	34.2%	56.3%
O=C(NCCS)c1cccc(NC(=O)C2Cc3ccccc3O2)c1 (configuration not stated)	11.8%	8.8%	12.2%	7.2%	9.3%	9.5%	16.3%	17%	6.6%	7.6%	5.3%	12.8%
O=C(NCCS)c1cccc(N2CCOCC2=O)c1	30.4%	15.2%	34.5%	24.8%	39%	34.1%	28.6%	40.2%	30.7%	31.3%	32.8%	46.8%
O=C(CCS)Nc1cccc(COc2ccc(F)cc2)c1	–	13.4%	15.9%	24.4%	13%	12.6%	41.9%	–	21%	13.7%	11.4%	26.3%
CCN(CC(=O)NCCS)Cc1ccc(Cl)cc1	44.6%	21.3%	35.9%	19.4%	24.1%	31%	34.6%	41.2%	17.5%	22.4%	18.2%	31.1%
O=C(CCS)N(Cc1ccc2c(c1)OCO2)C1CCCC1	–	18.7%	38.7%	24.5%	26.7%	30.2%	49.8%	–	23.9%	24.8%	16.7%	44.9%
O=C(CCS)N1CCN(Cc2cc(=O)n3ccccc3n2)CC1	–	15%	22.1%	32.9%	26.7%	36.1%	20.6%	–	25.3%	30.7%	24.7%	46.9%
CN1C(=O)C[C@@H](C(=O)NCCS)[C@@H]1c1ccc(F)cc1	45.3%	17.8%	37.5%	32.8%	35.3%	41.8%	17.6%	37.3%	26.3%	37.7%	31.8%	49.4%
CN(C)c1nc[nH]c(=O)c1NC(=O)CCS	–	12.7%	21.7%	28%	35.7%	28.9%	17.1%	–	30.5%	38.7%	32.2%	45.5%
Cn1cc(C(O)C2CCN(C(=O)CCS)CC2)c(=O)n(C)c1=O (configuration not stated)	–	7.2%	24.3%	28.6%	28%	32.8%	16.2%	–	22.7%	23.7%	24.7%	43.9%
